Measurements: the supplement of paper PMC11417369
This is one part of the list.

System: PF3D7_0420300 AP2 domain 1 (GST-tagged)
Assay: gcPBM binding intensity (ln(normalized median fluorescence intensity)); higher = stronger DNA binding
How it was run: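 Probes on an Agilent 4 × 180k array were primer-extended, double-stranded and 36 bp long, taken from intergenic genomic regions, with negative controls added. GST-tagged P. falciparum DNA-binding domains from E. coli, about 25 μg on average, were applied to the array for 1 h in 1× PBS containing 1% milk, 0.2 mg/ml BSA, 0.5% salmon testes DNA and 0.03% Triton X-100. Binding intensity, obtained after Alexa488 anti-GST antibody detection and a 488 nm scan, is the highest Masliner-normalised natural-log median intensity across replicate spots of either probe orientation.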

Row | Sequence | gcPBM binding intensity (ln)
1 | TTAGTCATATATATATGTACACACATATATATATTT [XGTACX_site2948] | 9.36
2 | ATTTTTATATAATGAACACACATATTATATCATTTA [CACACA_site1572] | 9.39
3 | AAAAGAAAATAAGAAACACACAAAAATATGTAAAAA [CACACA_site7694] | 9.79
4 | GAACATACTCAAATAGCACACACATAAATAAAAATG [CACACA_site9283] | 9.71
5 | AAAATCCACATTTTAGTACACACTTAAAAAATTATT [CACACA_site2955] | 9.27
6 | TTATATATATATATATGTACGAAAAAGAAAAAAAAG [XGTACX_site6761] | 9.35
7 | TATATATATATAATATGTACATATAATCAACATTTT [XGTACX_site3915] | 9.25
8 | ATATTATATAAATATACACACATTGTTTTATAGCAT [CACACA_site2386] | 9.46
9 | AAAAAAAAATACATATGTACATATACATATATATAT [XGTACX_site2975] | 9.18
10 | ATATATTTAATTTATGGTACACATAATTTTTTTAGA [XGTACX_site848] | 9.13
11 | TTAAAAAAAAGACACACACACATACACATATTTATA [CACACA_site7535] | 10
12 | TATATATATATATATACACACATATATATAAATATA [CACACA_site2035] | 9.2
13 | CACAAAAGTAAGCACGCACACACAACCTGAAATAAA [CACACA_site166] | 9.78
14 | TATCATTATGTAGAAACACACATAAGCTTCGGTTCA [CACACA_site2766] | 9.24
15 | GGGGAAAAAAAAAAAGGAAAAAGAAAAAAAAAAAAA [GTGCAC_negctrl_site489] | 8.55
16 | ATAAAATTTATATAAGCACACAAATATATATTTATA [CACACA_site9083] | 9.29
17 | GTAAAGGCTATATATGTGCACATTTTTTTTTTTTTT [GTGCAC_site9925] | 9.44
18 | AATTGCATAATATATTCACACATTTTTAAGTGATAC [CACACA_site5679] | 9.24
19 | TTATGGTTATACATATGTACATATATATATATATAT [XGTACX_site1494] | 9.29

Row | Sequence | gcPBM binding intensity (ln)
20 | ATATTATTTTAAAAAAGTACATTTTTAAGAATTCTT [XGTACX_site6630] | 8.85
21 | AACATATAAATAAACTGTACATATATATATATATAT [XGTACX_site1056] | 9.17
22 | AATATTACGTGTTTGGTATTTTTCGATGTTGGCAGG [XGTACX_negctrl_site59] | 9.43
23 | TCTCAGTAAATTAAATGTACATAAGGGAGGAACTAT [XGTACX_site8045] | 9.44
24 | TTGTGGATTTTGTGCGCACACACATGCAAAAAGAAA [CACACA_site1147] | 9.4
25 | TAAATATATGCATATACACACAACAAAAAAATATAT [CACACA_site2341] | 9.85
26 | CACAGACATATATATACACACTTTTATTTAAATAAC [CACACA_site4962] | 9.54
27 | AAAAAAAAAATGTGCACACGCGTACACCCAAAAAAA [CACACA_site5149] | 9.48
28 | TTTTTGTATCCTTCTTCTTTTTCCAGACTACATTAT [XGTACX_negctrl_site216] | 9.34
29 | TATAAAAATAATATTACACACATGTAAAATGGCTGT [CACACA_site5755] | 9.46
30 | GTATATATATATATATGTACATATATGTAGATATAT [XGTACX_site5431] | 9.35
31 | ATATGTACGCAAGGTGCACACTGGTGCATTAAAAAA [CACACA_site1801] | 9.24
32 | TTTTATTTTTTCTCACGTACAAATATATAATTTTTT [XGTACX_site6952] | 9.22
33 | ATGAATATAAAATATACACACTTATATATCGAATGA [CACACA_site6240] | 9.31
34 | TACATATGGCACATATGTACACACGTATAGATAATA [XGTACX_site4123] | 9.19
35 | AATATATCCTATTCGAACAAAAATACATGCACATAT [CACACA_negctrl_site1058] | 9.4
36 | CAACCTTTTTTGTTGGTGCATAATTTTTTTTTCTTT | 9.28
37 | ATATATATATATTGCACACATATAAATATATATATT [CACACA_site807] | 9.39
38 | AATATATAGCTAAAAACACACAAATATATACTCATA [CACACA_site5904] | 9.67

Row | Sequence | gcPBM binding intensity (ln)
39 | ATACATTTTTTTTTCACACATATATATATATTTAAT [CACACA_site5995] | 9.5
40 | CTCACGTAGCTTGATGCATGCAAACTTGAGTAAAAG [TGCATGCA_site409] | 8.91
41 | TTTATAAAATTTATTGCACACAATTATTTTATAATT [CACACA_site2489] | 9.1
42 | CATATACTCGGACACACACACACACCGACAAAAAAA [CACACA_site4433] | 10.1
43 | TTTTGTGGAGGATGGTGTACGGTATTGTATTATTAC [XGTACX_site1942] | 9.43
44 | TTTATAGTTTTTAATAGTACACATATTTTTAAGTAT [XGTACX_site5498] | 9.13
45 | TATCATAAAATATGTAGTACGTATATATATAAAAAT [XGTACX_site5455] | 9.39
46 | TAAACAGACATACATACACACATACATACAGACATA [CACACA_site6997] | 9.88
47 | AAAAAAAAAGTATATATATATTTAAGGAATTCTCTC [GTGCAC_negctrl_site454] | 9.14
48 | TGTTTCCTATTTTGTATGCACTTTTTGTCATAATTA [GTGCAC_site9921] | 9.57
49 | TAAATAAATAAAAAAACACACATATAAATATAAATA [CACACA_site7815] | 9.61
50 | TATGTGTGACAAAATTGTACGGTCTCTTTATTTTGT [XGTACX_site2679] | 9.43
51 | TATACGGACTCTAAGTGTACTTAAAATAATTCAAAC [XGTACX_site3606] | 9.24
52 | TATATTGCCCTTCACACACACACATATATATATATA [CACACA_site2492] | 10.3
53 | TAAAAATGTTGACACACACACATAAATATATTTTAT [CACACA_site7227] | 9.74
54 | ATTTTTATACCTAAGTGTACATGATGTTTTCTTTTT [XGTACX_site973] | 9.52
55 | TATTATATAATAAAAATTATTATTATTTGTATAAAT [CACACA_negctrl_site195] | 8.83
56 | CATTTTTAAAAAAATTGTACAAAACATATATGTGTA [XGTACX_site3396] | 9.03
57 | TTCCTTTTGAACTCTCGTACGCGTAGGTGTTATTAT [XGTACX_site6264] | 9.25
